Source: PubChem BioAssay AID360 (National Center for Advancing Translational Sciences (NCATS), 2006)
The whole screen tested about 48,000 compounds, of which about 550 (1.1%) were called active. Not shown: some 4% with an inconclusive outcome. Rule as the data show it: active = potency below about 15 µM; inconclusive = mostly about 16 µM to 33 µM; inactive = weaker than that. This is one part of the list.

What follows are compounds tested against Lysosomal acid glucosylceramidase (Homo sapiens) (UniProt P04062) (assay: Glucocerebrosidase). Details: purified enzyme, resorufin glucoside fluorescence (screen aimed at inhibitors), 20 min.
Summary of the method: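 Compounds titrated against 0.2 nM normal enzyme, 30 uM resorufin beta-D-glucopyranoside substrate, citrate/phosphate buffer with taurocholate and tween-20, pH 5.9. Reaction ran 20 min at room temperature; fluorescence (Ex 548/Em 600) gave AC50.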
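Also: the screen sought inhibitors.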
Potency is read from the fitted curve at half-maximal effect.

Chain of UniProt P04062 (P04062 whole entry, looked up): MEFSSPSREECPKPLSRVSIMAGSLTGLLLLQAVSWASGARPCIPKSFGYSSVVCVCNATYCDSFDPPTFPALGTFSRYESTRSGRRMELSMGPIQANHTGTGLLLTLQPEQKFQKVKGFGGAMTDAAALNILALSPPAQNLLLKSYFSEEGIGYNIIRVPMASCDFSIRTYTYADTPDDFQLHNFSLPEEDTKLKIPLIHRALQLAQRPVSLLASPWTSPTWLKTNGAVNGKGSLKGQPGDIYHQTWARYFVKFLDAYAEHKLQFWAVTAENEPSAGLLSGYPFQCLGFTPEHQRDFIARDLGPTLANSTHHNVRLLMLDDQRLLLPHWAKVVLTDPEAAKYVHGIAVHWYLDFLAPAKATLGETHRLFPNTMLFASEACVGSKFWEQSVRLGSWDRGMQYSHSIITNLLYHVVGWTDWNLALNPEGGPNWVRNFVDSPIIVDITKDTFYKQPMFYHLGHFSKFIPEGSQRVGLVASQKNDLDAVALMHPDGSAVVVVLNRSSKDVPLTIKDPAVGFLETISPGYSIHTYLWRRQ

Potency, inactive:
Cc1cc(-n2nc(C)cc2C)n2ncc(-c3ccccc3)c2n1 > 76.9 µM, COc1cccc(C(=O)NCCC2=CCCCC2)c1OC > 76.9 µM, CCN1CCN(C(=O)c2ccccc2N(C)S(=O)(=O)c2ccc(C)cc2)CC1 > 76.9 µM, CCOC(=O)c1c(C)nc(-c2ccccc2)nc1N > 76.9 µM, COc1cc(CC(=O)NCc2ccc3c(c2)OCO3)cc(OC)c1OC > 76.9 µM, COc1ccc(OC)c(-n2nnnc2SCC(=O)Nc2ccc(C(=O)N3CCCCC3)cc2)c1 > 76.9 µM, Cc1ccc(NC(=O)CS(=O)CC(=O)NCCCN(C)c2ccccc2)cc1 (stereo not drawn) > 76.9 µM, CCN1C(=O)c2cccc3c(NC(=O)c4ccc5c(c4)OCCO5)ccc1c23 > 76.9 µM, CCOC(=O)c1cccc(NC(=O)CNS(=O)(=O)c2cccs2)c1 > 76.9 µM, Cc1cc(C)n(-c2ccc(C(=O)OCC(=O)c3c(N)n(C)c(=O)n(C)c3=O)cc2)n1 > 76.9 µM, CC1CCN(S(=O)(=O)c2ccc(F)c(C(=O)O)c2)CC1 > 76.9 µM, O=C(Nc1cccc(F)c1)c1ccc(S(=O)(=O)NCC2CCCO2)cc1 (stereo not drawn) > 76.9 µM, COc1cccc(C(c2nnnn2Cc2ccccc2)N2CCN(C(=O)c3ccco3)CC2)c1OC (stereo not drawn) > 76.9 µM, COc1ccc(-c2nc(C#N)c(N3CCCCCC3)o2)cc1 > 76.9 µM, Cc1c(Cl)ccc2c1NC(=O)[C@]21[C@@H]2C(=O)N(Cc3ccccc3)C(=O)[C@@H]2[C@@H]2CCCN21, CC(=O)Nc1ccc(S(=O)(=O)N2CCN(C(=O)Cc3ccccc3)CC2)cc1 > 76.9 µM, CC(C)NC(=O)c1cc(-c2ccc(Br)cc2)on1 > 76.9 µM, COC(=O)c1oc2ccc(OC)cc2c1N > 76.9 µM, CCOCCCNC(=O)CN1C(=O)CSc2cc(S(=O)(=O)N3CCCCCC3)ccc21 > 76.9 µM, C=CCOc1cccc(C2C(C(=O)c3ccco3)=C(O)C(=O)N2CCN(CC)CC)c1 (stereo not drawn) > 76.9 µM, CN(Cc1ccccc1)Cc1nc2c([nH]1)c(=O)[nH]c(=O)n2C > 76.9 µM, CCN1C(=O)c2cccc3c(NC(=O)C(C)(C)C)ccc1c23 > 76.9 µM, Cc1c(NC(=O)COC(=O)Cc2ccc(Cl)cc2)c(=O)n(-c2ccccc2)n1C > 76.9 µM, O=S(=O)(NCc1ccccc1)c1ccc2c(c1)OCCO2, Cc1noc(C)c1CSc1nnc2cc(C)c3ccccc3n12 > 76.9 µM, NC(=O)CSc1nnc(-c2cccnc2)n1CCc1ccccc1 > 76.9 µM, COc1ccc(S(=O)(=O)N2CCC(n3cnc4cc(C(F)(F)F)ccc43)CC2)cc1 > 76.9 µM, OC1(c2ccccc2F)CCN(Cc2nnc(-c3ccccc3)o2)CC1 > 76.9 µM, CC(=O)C1C(c2cccc(Oc3ccccc3)c2)NC(=O)NC1(O)C(F)(F)F (stereo not drawn) > 76.9 µM, O=C(Cn1cnc2ccccc2c1=O)OCCCCN1C(=O)c2ccccc2C1=O > 76.9 µM, CC1CCc2[nH]nc(C(=O)O)c2C1 (stereo not drawn) > 76.9 µM, CSc1nnc2n(CCc3ccccc3)c(=O)c3c4c(sc3n12)CCCC4 > 76.9 µM, Nc1c(C(=O)NCCN2CCOCC2)c2nc3ccccc3nc2n1-c1ccc2c(c1)OCO2, COCc1cc(C)nc(SCC(=O)c2ccc(O)c(O)c2)c1C#N > 76.9 µM, CCOc1ccccc1NC(=O)C1CCN(S(=O)(=O)c2c(C)noc2C)CC1 > 76.9 µM, CS(=O)(=O)N1CCCC(C(=O)N2CCc3ccccc3C2)C1 (stereo not drawn) > 76.9 µM, CC(C)NS(=O)(=O)c1ccc(OCC(N)=O)c(Cl)c1 > 76.9 µM, CCOc1c(S(=O)(=O)N2CCCC2)ccc(Cl)c1Cl > 76.9 µM, C=CCSC1=C(C#N)C(c2cccc(OC)c2)CC(=O)N1 (stereo not drawn) > 76.9 µM, COC(=O)c1ccc2c(=O)n(CC3CCCO3)c(SCC(=O)Nc3ccccc3OC)nc2c1 (stereo not drawn) > 76.9 µM, CS(=O)(=O)Nc1ccc(S(=O)(=O)Nc2nccs2)cc1 > 76.9 µM, O=C1c2ccccc2C(=O)N1CCc1ccccn1 > 76.9 µM, COc1ccc(C(C)(C)C)cc1NC(=O)Nc1ccc2c(c1)OCO2 > 76.9 µM, COC(=O)c1ccc(CN2C(=O)NC3(CCCc4ccccc43)C2=O)o1 (stereo not drawn) > 76.9 µM, Nc1nc(SCC(=O)N2CCCc3ccccc32)[nH]c(=O)c1-c1ccccc1 > 76.9 µM, CCOC(=O)c1[nH]c(C)c(/C(O)=C2\C(=O)C(=O)N(CCN(C)C)C2c2ccco2)c1C (stereo not drawn) > 76.9 µM, CCn1c(Cc2ccccc2)nnc1SCc1nc2ccccc2c(=O)[nH]1 > 76.9 µM, CCCCN1C(=O)NC(NC(C)=O)(C(F)(F)F)C1=O (stereo not drawn) > 76.9 µM, COc1ccc(C2C3=C(CCCC3=O)Nc3nc4ccccc4n32)cc1OC (stereo not drawn) > 76.9 µM, Cc1ccc(NC(=O)Cn2cnc3c(cnn3C(C)(C)C)c2=O)cc1 > 76.9 µM, C=C(C)c1cccc(C(C)(C)NC(=O)N2CCN(CC(N)=O)CC2)c1 > 76.9 µM, CC(C)c1cc(NC(=O)C(C)(C)C)cc(C(C)C)c1O > 76.9 µM, CCOCC(=O)Nc1nnc(SCCOC)s1 > 76.9 µM, CCCCOc1ccc(C(C)NC(=O)C2CCCN(S(=O)(=O)CC)C2)cc1 (stereo not drawn) > 76.9 µM, N#C/C(=C(/O)COC(=O)CCCNC(=O)c1ccc(Cl)cc1)c1nc2ccccc2[nH]1 > 76.9 µM, COC(=O)c1cc(=O)nc2sc(-c3ccccc3)nn12 > 76.9 µM, O=C(O)c1ccc(-n2nc(C(F)(F)F)c3c2-c2ccoc2CC3)cc1 > 76.9 µM, Cc1ccccc1N1OC2C(=O)N(c3ccc(F)cc3)C(=O)C2C1c1ccccn1 (stereo not drawn) > 76.9 µM, O=C(OCc1nnc(-c2ccccc2)o1)C1=COCCO1 > 76.9 µM, C/C(N)=C(/C#N)C(=O)COC(=O)c1cc(S(=O)(=O)N2CCCCC2)ccc1C > 76.9 µM, CCOc1ccc(C2C(C(=O)OC)=C(C)N=C3SCCC(=O)N32)cc1OCC (stereo not drawn) > 76.9 µM, COc1cc(-c2nnc(Cn3cc(C(F)(F)F)ccc3=O)o2)cc(OC)c1OC > 76.9 µM, COc1ccc2cc(C#N)c(SCC(=O)N3CCCC3)nc2c1 > 76.9 µM, Cc1nnsc1C(=O)Nc1ccccc1Cl > 76.9 µM, O=C(c1cc(-c2ccncc2)nc2ccc(Cl)cc12)N1CCN(C(=O)C2CCCO2)CC1 (stereo not drawn) > 76.9 µM, Cc1cc(C)nc(-n2nc(C)c3c(=O)[nH]c(C(F)(F)F)nc32)n1 > 76.9 µM, CC(=O)c1cccc(NC(=O)Nc2ccc(C(=O)N3CCCC3)cc2)c1 > 76.9 µM, COc1ccccc1C1CC(=O)NC(C)=C1C(=O)OCC1CCCO1 (stereo not drawn) > 76.9 µM, O=C(CSc1nnc(CNc2ccc(F)cc2)n1Cc1ccccc1)NCc1ccco1 > 76.9 µM, COc1ccc(Cn2nnnc2CN(Cc2cc3ccc(C)cc3[nH]c2=O)C2CCCC2)cc1 > 76.9 µM, COc1ccc(-c2nn3c(-c4ccco4)nnc3s2)cc1OC > 76.9 µM, CCOC(=O)N1CCN(c2cc3[nH]c(=S)[nH]c3cc2F)CC1 > 76.9 µM, COc1ccc(S(=O)(=O)N(CC(=O)NC2CC2)C2CCCCC2)cc1Cl > 76.9 µM, COc1ccc(C(=O)Nc2nc3nc(-c4ccccc4)cc(=O)n3[nH]2)cc1 > 76.9 µM, COc1cccc(C(=O)N2CCN(Cc3ccccc3C(F)(F)F)CC2)c1 > 76.9 µM, Cc1ccc(S(=O)(=O)N2Cc3ccccc3CC2C(=O)Nn2cnnc2)cc1 (stereo not drawn) > 76.9 µM, CC1CCCCN1S(=O)(=O)c1ccc2c(c1)CCN2C(=O)CCC(=O)O (stereo not drawn) > 76.9 µM, COc1cccc(C(=O)Oc2cc(N)n(S(=O)(=O)c3ccc(C)cc3)n2)c1OC > 76.9 µM, Cc1nn(C)c(C)c1NC(=O)CSc1nnc(C)n1-c1ccccc1 > 76.9 µM, Cn1c(=O)c2c(nc(NCc3ccco3)n2C/C=C/c2ccccc2)n(C)c1=O > 76.9 µM, COC(=O)COc1ccc(S(=O)(=O)NCC2CCCO2)cc1Cl (stereo not drawn) > 76.9 µM, O=C(Cn1cc(C(=O)C2CC2)c2ccccc21)NCC1CCCO1 (stereo not drawn) > 76.9 µM, CC(NC(=O)c1ccnc(C(C)(C)C)c1)c1ccccc1 (stereo not drawn) > 76.9 µM, CC(=O)c1ccc(-c2nc3ccccc3n2C)o1 > 76.9 µM, CCc1ccc(Nc2ncc3c(n2)CC(c2ccco2)CC3=O)cc1 (stereo not drawn) > 76.9 µM, Cc1cc(NC(=O)COc2cccc3cccnc23)no1 > 76.9 µM, CC(=O)n1c2ccccc2c2nc(NC(C)C)sc21 > 76.9 µM, CCOc1ccccc1NC(=O)C1C2C=CC(O2)C1C(=O)O (stereo not drawn) > 76.9 µM
